From the supplement of paper PMC3334620
In all, about 33,000 sequences were measured (“E-score (-0.5 to 0.5)”: median about -0.021, highest 2% from about 0.32 on). This is one part of the list.

biological target: T1, Zap1 (UniProt P47043); experiment: PBM E-score (8-mer binding enrichment) (E-score (-0.5 to 0.5)); higher = stronger / more preferred TF binding; most listed sequences are background and not binding sites; settings: protein concentration: 200 nM; construct: GST-full length
T1 sequence: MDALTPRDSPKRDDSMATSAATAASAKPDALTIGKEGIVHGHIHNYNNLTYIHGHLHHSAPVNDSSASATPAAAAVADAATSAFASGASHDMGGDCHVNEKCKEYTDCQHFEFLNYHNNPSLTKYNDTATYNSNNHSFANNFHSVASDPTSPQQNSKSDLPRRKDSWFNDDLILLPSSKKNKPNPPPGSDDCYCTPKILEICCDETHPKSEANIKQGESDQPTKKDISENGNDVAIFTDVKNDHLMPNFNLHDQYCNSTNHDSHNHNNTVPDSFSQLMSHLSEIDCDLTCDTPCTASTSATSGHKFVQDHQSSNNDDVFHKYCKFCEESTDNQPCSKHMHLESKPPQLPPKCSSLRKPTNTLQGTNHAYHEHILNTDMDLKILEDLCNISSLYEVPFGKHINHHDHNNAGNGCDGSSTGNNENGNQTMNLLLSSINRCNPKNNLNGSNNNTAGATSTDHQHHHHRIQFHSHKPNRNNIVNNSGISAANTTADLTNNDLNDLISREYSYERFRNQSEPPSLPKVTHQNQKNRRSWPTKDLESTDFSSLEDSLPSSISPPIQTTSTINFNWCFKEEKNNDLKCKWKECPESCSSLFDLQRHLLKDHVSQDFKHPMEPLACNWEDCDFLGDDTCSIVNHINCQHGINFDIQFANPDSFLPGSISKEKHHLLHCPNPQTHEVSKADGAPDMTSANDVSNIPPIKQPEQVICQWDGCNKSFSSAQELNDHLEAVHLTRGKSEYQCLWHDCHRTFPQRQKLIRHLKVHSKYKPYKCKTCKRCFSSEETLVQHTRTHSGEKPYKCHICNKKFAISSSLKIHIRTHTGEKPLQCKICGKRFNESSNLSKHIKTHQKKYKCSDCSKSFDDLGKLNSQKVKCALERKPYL
Outline: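 Each ungapped eight-base word and its reverse complement, pooled, received an E-score from the Universal PBM Analysis Suite. Underlying scans, normalised with masliner, recorded fluorescent anti-GST bound to GST-tagged yeast transcription factors. These were applied at about 100-200 nM to universal all-10-mer Agilent arrays double-stranded by primer extension.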

Sequence	PBM E-score
GTAATAAC	0.234
GAGGTTTA	0.11
CAGGCACA	-0.218
CTAGATGA	0.0597
AGAGGTGC	-0.211
ACGCTAAC	0.0137
GCGACCGC	-0.00213
ATGCCGGC	-0.32
GCAAGATA	0.0727
CCTGTGGA	-0.196
GTAGCAGA	0.102
CCCCCAAC	-0.244
ACCCCGCG	0.246
TAGAACCA	0.0918
AAGGAAGC	-0.252
GACGCCAC	-0.0954
ATCGGACC	-0.021
AAGCGTTA	-0.0244
ATTTAGAG	0.126
GCCCTTCC	-0.105
CAATTTGC	-0.169
ACCTCAGT	0.21

Sequence	PBM E-score
AGTGAGTC	-0.0325
CCTCAAAG	0.0989
AGGGTCGA	0.225
AGCAGTGA	0.0404
AACTGTCT	-0.105
CCGTTTAG	0.0155
ATGGTGGA	-0.244
GCTGGTCA	0.0223
ATATGCAG	-0.25
CTTCACAA	-0.0479
ACGGTGAC	-0.0408
ATCGACAC	0.107
CCACGCTC	-0.231
ACAATGAG	-0.0379
GCGAAGTA	-0.128
ACCGGGGC	-0.0198
CACGGTGG	0.0955
AAGCGGAC	-0.0202
GACCGCGC	0.0705
AACCGCTT	0.31
ATTCGCTG	-0.149
ATCGGGAG	-0.201

Sequence	PBM E-score
CGAGAAAC	0.0891
ACGTTTGC	-0.261
ACAGACAT	-0.082
ACCAATCA	0.0786
GTCTTTCA	-0.0688
AGGGCCCG	-0.23
TACCATGA	0.12
CTGATAAG	0.056
ACACTTTA	0.00496
CCGTCATA	0.00745
CAATTAGC	-0.0997
ACGTCGAT	0.00438
ACTAACTC	-0.137
AGACGGGA	-0.349
ATTCTCCA	-0.00761
ACTTGTCT	-0.059
CCACGCCC	-0.149
CCCCCACA	-0.257
CTGCCGAC	-0.0995
AAATCAGA	0.0562
ACATAAAA	0.107
CAACCTGG	0.111

Sequence	PBM E-score
CCCCGGAA	-0.0761
AACAGTGG	0.0381
ATCTTTCG	-0.0476
CCTACCCC	-0.0627
GATAGTAC	0.189
TCACGCAA	0.0552
CGTCACTC	-0.0793
AGGGGCTA	-0.0271
CGTGCCAA	-0.164
AGTGGTGG	0.117
CCCTGTTA	0.277
GGCGGCAC	-0.122
GAGCTGTA	-0.244
CATGTGCG	-0.0899
AAATAAAT	0.256
TATAGATA	0.0707
CTGGGTCA	0.143
ACCTATAC	0.249
ATTCAACG	0.0478
ATTGTAAA	0.167
